Assay results published in paper PMC9812374.
Where two headings read alike, the source gives them in different places. Results are given in words; binding and its absence hold for the method and conditions named. For some assays here: Binding seen in cells or lysates may run through a third protein. Some binding calls cover weakened binding; strength is not graded here. For some assays here: Where a sequence is shown, tags or fusion partners need not be part of it.

By UniProt entry, the sequences of proteins in these tests, tags left out.
UniProt Q8S307: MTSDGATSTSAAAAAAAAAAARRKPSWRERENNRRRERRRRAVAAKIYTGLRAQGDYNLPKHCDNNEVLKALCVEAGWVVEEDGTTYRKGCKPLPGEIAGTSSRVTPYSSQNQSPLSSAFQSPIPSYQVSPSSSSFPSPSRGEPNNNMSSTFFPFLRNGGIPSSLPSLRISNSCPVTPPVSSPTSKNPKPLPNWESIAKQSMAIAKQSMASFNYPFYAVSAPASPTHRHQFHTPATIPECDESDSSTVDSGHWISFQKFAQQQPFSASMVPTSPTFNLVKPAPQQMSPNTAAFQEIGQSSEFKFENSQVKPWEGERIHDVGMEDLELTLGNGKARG

What was measured:
[1] = target: BZR1, yeast two-hybrid fusion (Arabidopsis) (UniProt Q8S307); test: two-hybrid; pGBKT7 and pGADT7 fusions in yeast; growth on SD medium lacking leucine, tryptophan, adenine and histidine, 30°C (3AT in Fig. 4D)
[2] = target: T1, GRF4, yeast two-hybrid fusion (Arabidopsis), P46077; test: as above; details: remark: other sources report otherwise
T1 chain: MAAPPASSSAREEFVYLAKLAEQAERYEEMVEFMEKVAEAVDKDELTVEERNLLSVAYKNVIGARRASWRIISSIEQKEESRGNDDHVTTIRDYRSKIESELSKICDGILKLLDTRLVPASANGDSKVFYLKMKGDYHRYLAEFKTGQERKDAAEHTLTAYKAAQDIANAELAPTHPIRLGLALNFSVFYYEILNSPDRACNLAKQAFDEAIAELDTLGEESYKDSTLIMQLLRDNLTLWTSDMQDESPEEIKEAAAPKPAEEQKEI

[3] = target: T2, GRF4, yeast two-hybrid fusion (Arabidopsis) (UniProt P46077); test: as above
T2 sequence: T1 chain

[4] = target: T3, GRF4-nLUC (Arabidopsis), P46077; test: split reporter; luciferase complementation imaging (LCI): GRF4-nLUC + cLUC-MPKs infiltrated into N. benthamiana leaves; luminescence after D-luciferin; details: remark: other sources report otherwise
T3 chain: T1 chain

GRF4-nLUC (Arabidopsis) = target: T4, GRF4-nLUC (Arabidopsis) (UniProt P46077); test: as above
T4 sequence: T1 chain

[5] = target: T5, cEYFP-GRF4 (Arabidopsis), P46077; test: split reporter; BiFC with nEYFP and cEYFP fusions in transfected Arabidopsis mesophyll protoplasts; confocal microscopy; details: remark: other sources report otherwise
T5 chain: T1 chain

cEYFP-GRF4 (Arabidopsis) = target: T6, cEYFP-GRF4 (Arabidopsis) (UniProt P46077); test: as above
T6 sequence: T1 chain

[6] = target: BZR1, yeast two-hybrid fusion (Arabidopsis) (UniProt Q8S307); test: two-hybrid; pGBKT7 and pGADT7 fusions in yeast; growth on SD medium lacking leucine, tryptophan, adenine and histidine, 30°C (3AT in Fig. 4D); remark: listed apart in the source

For “MPK6, yeast two-hybrid fusion (from UniProt Q39026 1-395) (enzyme)”, the binding [1] was “no binding”.

B1: MPK3, yeast two-hybrid fusion, Q39023 1-370 (enzyme)
chain: MNTGGGQYTDFPAVETHGGQFISYDIFGSLFEITSKYRPPIIPIGRGAYGIVCSVLDTETNELVAMKKIANAFDNHMDAKRTLREIKLLRHLDHENIIAIRDVVPPPLRRQFSDVYISTELMDTDLHQIIRSNQSLSEEHCQYFLYQLLRGLKYIHSANIIHRDLKPSNLLLNANCDLKICDFGLARPTSENDFMTEYVVTRWYRAPELLLNSSDYTAAIDVWSVGCIFMELMNRKPLFPGKDHVHQMRLLTELLGTPTESDLGFTHNEDAKRYIRQLPNFPRQPLAKLFSHVNPMAIDLVDRMLTFDPNRRITVEQALNHQYLAKLHDPNDEPICQKPFSFEFEQQPLDEEQIKEMIYQEAIALNPTYG
For B1, the binding [2] was “binds”.

B2: MPK6, yeast two-hybrid fusion, Q39026 1-395 (enzyme)
chain: MDGGSGQPAADTEMTEAPGGFPAAAPSPQMPGIENIPATLSHGGRFIQYNIFGNIFEVTAKYKPPIMPIGKGAYGIVCSAMNSETNESVAIKKIANAFDNKIDAKRTLREIKLLRHMDHENIVAIRDIIPPPLRNAFNDVYIAYELMDTDLHQIIRSNQALSEEHCQYFLYQILRGLKYIHSANVLHRDLKPSNLLLNANCDLKICDFGLARVTSESDFMTEYVVTRWYRAPELLLNSSDYTAAIDVWSVGCIFMELMDRKPLFPGRDHVHQLRLLMELIGTPSEEELEFLNENAKRYIRQLPPYPRQSITDKFPTVHPLAIDLIEKMLTFDPRRRITVLDALAHPYLNSLHDISDEPECTIPFNFDFENHALSEEQMKELIYREALAFNPEYQQ
With B2 the binding [2] was “binds”.

B3: MPK7, yeast two-hybrid fusion (enzyme, UniProt Q39027 1-368)
chain: MAMLVEPPNGIKQQGKHYYSMWQTLFEIDTKYVPIKPIGRGAYGVVCSSINRETNERVAIKKIHNVFENRVDALRTLRELKLLRHVRHENVIALKDVMLPANRSSFKDVYLVYELMDTDLHQIIKSSQSLSDDHCKYFLFQLLRGLKYLHSANILHRDLKPGNLLVNANCDLKICDFGLARTSQGNEQFMTEYVVTRWYRAPELLLCCDNYGTSIDVWSVGCIFAEILGRKPIFPGTECLNQLKLIINVVGSQQESDIRFIDNPKARRFIKSLPYSRGTHLSNLYPQANPLAIDLLQRMLVFDPTKRISVTDALLHPYMAGLFDPGSNPPAHVPISLDIDENMEEPVIREMMWNEMLYYHPEAEISNA
For B3, the binding [3] was “binds”.

B4: cLUC-MPK3, Q39023 1-370 (enzyme)
chain: B1 chain
In the case of B4, the binding [4] is reported as “binds”.

B5: cLUC-MPK6, Q39026 1-395 (enzyme)
chain: B2 chain
In the case of B5, the binding [4] is reported as “binds”.

B6: cLUC-MPK7 (enzyme, UniProt Q39027 1-368)
chain: B3 chain
B6 was tested, and the binding (GRF4-nLUC (Arabidopsis)) was “binds”.

B7: nEYFP-MPK3, Q39023 1-370 (enzyme)
chain: B1 chain
With B7 the binding [5] was “binds”.

B8: nEYFP-MPK6, Q39026 1-395 (enzyme)
chain: B2 chain
With B8 the binding [5] was “binds”.

B9: nEYFP-MPK7 (enzyme, UniProt Q39027 1-368)
chain: B3 chain
In the case of B9, the binding (cEYFP-GRF4 (Arabidopsis)) is reported as “binds”.

B10: MPK3, yeast two-hybrid fusion (enzyme, UniProt Q39023 1-370)
chain: B1 chain
In the case of B10, the binding [6] is reported as “no binding”.
